Experimental data taken from paper PMC10945505 (2024).

Target: L-39F7
Assay: BLI

- Kd: 1.7 nM
B1: Human βKlotho (receptor)
chain: not shown
